# Measurements: PubChem BioAssay AID2528 (National Center for Advancing Translational Sciences (NCATS), 2010)
# About 700 (0.2%) of roughly 350,000 compounds were called active. Calls follow the shape of the dose curve; as a rule, active = well fitted inhibition curve with a large enough effect; inconclusive = small, poorly fitted or top-dose-only effect; inactive = flat fitted curve, though single readings scatter. This is a selection; strong and weak results do not stand in their true shares.
# Biological target: RecQ-like DNA helicase BLM (Homo sapiens) (UniProt P54132)
# Assay: qHTS Assay for Inhibitors of Bloom's syndrome helicase (BLM); also: nearly all actives have a fitted effect of over 35% in size;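 as to activity change, negative = inhibition: plate controls were vehicle for no effect and no enzyme for full effect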
# Settings: recombinant BLM DNA unwinding, fluorescence dequenching; series mostly up to 56.1 µM; activity change, negative = inhibition: at the top concentration
# Text: Survival of cells and the faithful propagation of the genome depend on elaborate mechanisms of detecting and repairing DNA damage. Treatment of advanced cancer relies on radiation therapy or chemotherapy, which kill cancer cells by causing extensive DNA damage. It is often found, that cancer cells develop resistance to therapy through enhanced activity of DNA repair functions; this has led to an increased interest in developing drugs that interfere with DNA repair, which could sensitize cancer cells to conventional therapy.
# This validation qHTS assay pertains to human BLM, which is important in resolving abnormal DNA structures formed during replication or homologous recombination. Shutting down the expression of BLM leads to chromosomal instability and higher radiation sensitivity in cultured cells.
# The validation assay was a fluorescence quenching based kinetic qHTS for BLM Helicase DNA unwinding. The activity was measured as ATP-dependent separation of a 20-bp DNA duplex extended by 30-nt single-stranded tails (forked duplex). The forked DNA substrate was tagged with rhodamine fluorophore (carboxytetramethyl rhodamine, TAMRA) and BHQ-2 (Black Hole Quencher 2) dark quencher. Strand separation results in an increase in the fluorescence of TAMRA (excitation 525 nm, emission 598 nm). This substrate construct operates in a red-shifted region where very few compound library members have been noted to fluoresce (PubChem AIDs 593 and 594). An additional feature of the assay is the inclusion of 2.5 ug/ml poly (dIdC), to reduce interference by compounds such as DNA intercalators, a major source of false inhibitors.
# Ian Hickson, University of Oxford
# Opher Gileadi, Structural Genomics Consortium, University of Oxford
# Screening Center PI: Austin, C.P.
# Screening Center: NIH Chemical Genomics Center [NCGC]
# Three uL of reaction buffer (25 mM Tris-HCl (pH 8.0), 5 mM NaCl, 2 mM MgCl2, 1mM DTT, 0.01% Tween- 20, and 2.5 ug/ml poly(dI-dC), including enzyme (50 nM BLM), were dispensed into a 1536-well Greiner black assay plate via solenoid-valve based nanoliter dispensers. Compounds (23 nl each in columns 5-48) and control (23 nl each in column 2 as dose-response) were transferred via a Kalypsys pintool equipped with a 1536-pin array. The plates were incubated for 15 min at room temperature, and then 1 ul of substrates (200 nM DNA and 2 mM ATP, final concentrations) was added to start the reaction. The plate was transferred into a ViewLux high-throughput CCD imager where the reaction progress was measured in a discontinuous kinetic mode (two reads spaced 2 hours apart, with intermediate room temperature incubation of the covered assay plate) by using standard red-fluorescence optics (excitation filter 525 nm, emission filter 598 nm). Enzyme-free and vehicle (DMSO) controls were included for signal normalization.
# Potency is read from the fitted curve at half-maximal effect.
# Chain of UniProt P54132 (P54132 whole entry, looked up): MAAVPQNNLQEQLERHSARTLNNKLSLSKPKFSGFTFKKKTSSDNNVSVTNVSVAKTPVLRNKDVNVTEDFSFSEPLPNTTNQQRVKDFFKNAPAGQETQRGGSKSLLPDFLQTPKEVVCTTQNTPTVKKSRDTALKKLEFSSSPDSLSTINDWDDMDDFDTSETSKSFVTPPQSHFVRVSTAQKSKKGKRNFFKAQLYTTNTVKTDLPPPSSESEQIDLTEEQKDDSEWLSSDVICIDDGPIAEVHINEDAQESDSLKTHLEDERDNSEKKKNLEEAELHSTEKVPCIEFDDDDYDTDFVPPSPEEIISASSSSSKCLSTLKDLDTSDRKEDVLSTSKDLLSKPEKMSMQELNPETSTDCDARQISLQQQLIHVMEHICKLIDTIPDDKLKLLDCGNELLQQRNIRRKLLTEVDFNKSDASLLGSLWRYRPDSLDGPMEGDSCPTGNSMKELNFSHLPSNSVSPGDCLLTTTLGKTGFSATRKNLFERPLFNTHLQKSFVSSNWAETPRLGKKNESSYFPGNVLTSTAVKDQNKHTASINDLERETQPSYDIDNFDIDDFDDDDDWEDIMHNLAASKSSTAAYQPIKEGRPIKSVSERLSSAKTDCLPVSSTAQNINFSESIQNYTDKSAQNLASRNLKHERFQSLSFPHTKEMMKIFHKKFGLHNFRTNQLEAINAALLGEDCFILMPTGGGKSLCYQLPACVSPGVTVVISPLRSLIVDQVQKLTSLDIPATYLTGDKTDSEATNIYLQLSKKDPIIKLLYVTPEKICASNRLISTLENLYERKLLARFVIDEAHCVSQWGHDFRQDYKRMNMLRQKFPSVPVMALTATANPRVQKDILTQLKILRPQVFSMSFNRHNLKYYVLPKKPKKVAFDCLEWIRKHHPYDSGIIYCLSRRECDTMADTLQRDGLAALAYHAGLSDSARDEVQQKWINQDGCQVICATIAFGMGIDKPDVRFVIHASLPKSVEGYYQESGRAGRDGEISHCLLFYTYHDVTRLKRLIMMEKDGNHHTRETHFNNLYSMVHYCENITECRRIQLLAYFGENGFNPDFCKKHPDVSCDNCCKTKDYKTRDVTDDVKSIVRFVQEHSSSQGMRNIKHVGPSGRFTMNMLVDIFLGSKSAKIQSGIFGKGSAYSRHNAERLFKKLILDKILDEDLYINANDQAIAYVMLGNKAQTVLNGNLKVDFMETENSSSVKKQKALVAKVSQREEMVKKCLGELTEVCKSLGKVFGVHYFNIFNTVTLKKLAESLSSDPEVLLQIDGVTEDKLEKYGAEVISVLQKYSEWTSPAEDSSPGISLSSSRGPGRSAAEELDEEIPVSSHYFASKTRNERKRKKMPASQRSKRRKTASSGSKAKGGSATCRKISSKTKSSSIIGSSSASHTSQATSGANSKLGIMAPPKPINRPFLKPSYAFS
SMILES,"activity change, negative = inhibition",Potency
NC/C=C\C(=O)O,inactive: 1.23%,
NCCc1cnc[nH]1,,inactive
NCCCC(=O)O,,inactive
COc1ccc2nc(-n3c(O)c(C4=c5ccccc5=NC4=O)[nH]c3=S)sc2c1,,active: 20 µM
CCCC1OC2CC3C4CCC5=CC(=O)C=CC5(C)C4C(O)CC3(C)[C@]2(C(=O)CO)O1 (stereo partly drawn),inactive: -10.2%,
COc1ccc(-c2cc(=O)oc3c(O)c(O)ccc23)cc1,,active: 10 µM
CCOC(=O)c1cc2c(=O)n3ccccc3nc2n(Cc2ccco2)c1=NC(=O)c1ccc(OC)cc1,inactive: -2.45%,
COc1ccc2c(c1OC)C(=O)O[C@H]2C1c2c(cc3c(c2OC)OCO3)CCN1C (stereo partly drawn),,inactive
NC(N)=NC(N)=Nc1cccc(Cl)c1,,inactive
C[C@@](N)(Cc1ccc(O)c(O)c1)C(=O)O,,inactive
CCn1ncc(Cl)c1C(=O)Nc1ccc2c(c1)CCC2,,active: 25.1 µM
CC[C@]1(O)C[C@H]2CN(CCc3c([nH]c4ccccc34)[C@@](C(=O)OC)(c3cc4c(cc3OC)N(C=O)[C@H]3[C@@](O)(C(=O)OC)[C@H](OC(C)=O)[C@]5(CC)C=CCN6CC[C@]43[C@@H]65)C2)C1,inactive: 3.39%,
N[C@H](Cc1cnc[nH]1)C(=O)O,inactive: -4.39%,
COC(=O)[C@@H]1C2CC3c4[nH]c5cc(OC)ccc5c4CCN3CC2C[C@H](OC(=O)c2cc(OC)c(OC)c(OC)c2)C1OC (stereo partly drawn),inactive: -12.7%,
CC(=O)OCC(=O)[C@@]1(O)CCC2C3CCC4=CC(=O)CCC4(C)C3C(=O)CC21C (stereo partly drawn),inactive: -0.919%,
Oc1ccc(/C=C/c2cc(O)cc(O)c2)cc1,,inactive
COC(=O)[C@@H]1[C@@H]2C[C@H]3c4[nH]c5ccccc5c4CCN3C[C@@H]2CC[C@@H]1O,,inactive
Oc1c(Cl)cc(Cl)c(Cl)c1Cc1c(O)c(Cl)cc(Cl)c1Cl,inactive: -13.2%,
CCCc1c(-c2ccc(O)cc2)nn(-c2ccc(O)cc2)c1-c1ccc(O)cc1,,inactive
COc1ccc(CNCCC(c2ccccc2)c2ccc3c(c2)OCO3)cc1 (stereo not drawn),inactive: -2.75%,
O=C1c2sc3nc4n(c(=O)c3c2CCC1Br)CCCCC4 (stereo not drawn),,active: 25.1 µM
O=c1[nH]c2cc([N+](=O)[O-])c([N+](=O)[O-])cc2[nH]c1=O,,inactive
CCC1Cc2cc(O)ccc2C2=C1c1ccc(O)cc1CC2CC (stereo not drawn),inactive: -10.2%,
CC(=O)/C(C)=N\O,inactive: 5.22%,

SMILES,"activity change, negative = inhibition",Potency
COc1ccc(NC(=S)Nc2ccc3nsnc3c2)cc1,,active: 3.98 µM
COC(=O)Nc1nc2ccc(C(=O)c3cccs3)cc2[nH]1,,inactive
Nc1ccn([C@H]2CC[C@@H](CO)O2)c(=O)n1,,inactive
NC[C@](O)(CS(=O)(=O)O)c1ccc(Cl)cc1,inactive: 4.69%,
O=Cc1ccc2oc3nc4n(c(=O)c3c(=O)c2c1)CCCS4,,active: 28.2 µM
COc1cccc(-c2cc(=O)c3ccccc3o2)c1N,inactive: -1.78%,
CN(C)CCOC(C)(c1ccccc1)c1ccccn1 (stereo not drawn),,inactive
O=C(C1CCCCC1)N1CC(=O)N2CCc3ccccc3C2C1 (stereo not drawn),,inactive
CC(C)Cn1c(N)c(C(=O)COC(=O)c2cc(-c3ccco3)nc3ccccc23)c(=O)n(C)c1=O,inactive: 2.58%,
Nc1nc2ccc(OC(F)(F)F)cc2s1,,inactive
Oc1cc(O)c2c(c1)O[C@H](c1ccc(O)c(O)c1)[C@H](O)C2,,inactive
O=C(CCN1CCN(c2ccccc2)CC1)N/N=C/c1ccc(O)c(O)c1O,,active: 11.2 µM
O=C(O)c1cc(=O)cc(C(=O)O)[nH]1,inactive: -2.83%,
Cc1ccc(NC(=O)CN2C(=O)S/C(=C/c3ccc(O)c([N+](=O)[O-])c3)C2=O)cc1C,,active: 25.1 µM
O=C(O)c1cc(N=Nc2ccc(-c3ccc(N=Nc4ccc(O)c(C(=O)O)c4)cc3)cc2)ccc1O,,active: 17.8 µM
COc1ccc2c(c1OC)C(=O)O[C@@H]2[C@H]1c2c(cc3c(c2OC)OCO3)CCN1C,,inactive
COc1ccc(OC)c(NC(=O)COC(=O)c2cc3c(s2)CCC3)c1,,active: 15.8 µM
Cc1cc(C(C)(C)C)c(O)c(C)c1CC1=NCCN1,,inactive
NC(Cc1ccc(Cl)cc1)C(=O)O (stereo not drawn),inactive: -0.398%,
CC(N)=NCCCC[C@H](N)C(=O)O,inactive: 1.41%,
COc1cc2c(cc1O)CCC1C2CC[C@@]2(C)C1CC[C@@H]2O (stereo partly drawn),inactive: -1.42%,
CC(C)(C(=O)O)c1ccc(C(O)CCCN2CCC(C(O)(c3ccccc3)c3ccccc3)CC2)cc1 (stereo not drawn),,inactive
CC(C)N(C(=O)Nc1ccc2nsnc2c1)C(C)C,,active: 5.62 µM
CC(C)(C)NC[C@@H](O)COc1nsnc1N1CCOCC1,inactive: -14%,
